No constants are given. Whether binding was seen depends on the method and setting. For part of these data: Binding seen in cells or lysates may run through a third protein. Some binding calls cover weakened binding; strength is not graded here. For part of these data: Where a sequence is shown, tags or fusion partners need not be part of it. Values belong to the molecule of their own block, whether it stands above or below them.
Columns and labels:
His-ELK3-D4 = molecular target: T1, His-ELK3-D4 (UniProt P41970); experiment: pull-down; bacterially expressed His-ELK3 proteins coupled with Ni-IDA resin, incubated at 4 °C for 30 min with 400 μg lysate of HEK293T cells expressing Myc-RSK2 in 150 mM NaCl, 40 mM Tris pH 8.0, 0.5% NP-40; western blotting with Myc and RSK2 antibodies; only the target purified
T1 sequence: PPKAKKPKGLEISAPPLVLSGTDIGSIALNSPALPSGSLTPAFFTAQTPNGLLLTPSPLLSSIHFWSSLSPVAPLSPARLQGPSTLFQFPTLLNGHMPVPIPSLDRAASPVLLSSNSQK

Amino acid sequences for entries named in this document (tags omitted).
UniProt Q9UK32: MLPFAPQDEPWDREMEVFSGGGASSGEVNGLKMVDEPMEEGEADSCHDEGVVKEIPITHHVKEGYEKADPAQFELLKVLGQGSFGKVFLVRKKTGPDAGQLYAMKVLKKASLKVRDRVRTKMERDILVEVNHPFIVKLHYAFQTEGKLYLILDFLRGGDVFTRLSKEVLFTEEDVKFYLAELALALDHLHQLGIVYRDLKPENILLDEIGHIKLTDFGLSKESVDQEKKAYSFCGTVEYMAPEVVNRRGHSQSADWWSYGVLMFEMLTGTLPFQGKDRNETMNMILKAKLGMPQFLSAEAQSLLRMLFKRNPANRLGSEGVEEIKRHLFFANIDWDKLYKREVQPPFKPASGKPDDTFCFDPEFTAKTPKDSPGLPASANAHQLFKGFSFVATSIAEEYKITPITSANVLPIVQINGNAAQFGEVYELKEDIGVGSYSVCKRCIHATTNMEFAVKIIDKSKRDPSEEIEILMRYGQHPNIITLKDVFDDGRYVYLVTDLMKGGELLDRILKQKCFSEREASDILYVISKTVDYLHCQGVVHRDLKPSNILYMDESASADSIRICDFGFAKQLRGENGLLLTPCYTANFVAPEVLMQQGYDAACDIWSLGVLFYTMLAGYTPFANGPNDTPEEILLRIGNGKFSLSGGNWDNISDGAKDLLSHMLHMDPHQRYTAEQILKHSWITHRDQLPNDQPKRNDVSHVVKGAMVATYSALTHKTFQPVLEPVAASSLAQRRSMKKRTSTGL
UniProt Q15349: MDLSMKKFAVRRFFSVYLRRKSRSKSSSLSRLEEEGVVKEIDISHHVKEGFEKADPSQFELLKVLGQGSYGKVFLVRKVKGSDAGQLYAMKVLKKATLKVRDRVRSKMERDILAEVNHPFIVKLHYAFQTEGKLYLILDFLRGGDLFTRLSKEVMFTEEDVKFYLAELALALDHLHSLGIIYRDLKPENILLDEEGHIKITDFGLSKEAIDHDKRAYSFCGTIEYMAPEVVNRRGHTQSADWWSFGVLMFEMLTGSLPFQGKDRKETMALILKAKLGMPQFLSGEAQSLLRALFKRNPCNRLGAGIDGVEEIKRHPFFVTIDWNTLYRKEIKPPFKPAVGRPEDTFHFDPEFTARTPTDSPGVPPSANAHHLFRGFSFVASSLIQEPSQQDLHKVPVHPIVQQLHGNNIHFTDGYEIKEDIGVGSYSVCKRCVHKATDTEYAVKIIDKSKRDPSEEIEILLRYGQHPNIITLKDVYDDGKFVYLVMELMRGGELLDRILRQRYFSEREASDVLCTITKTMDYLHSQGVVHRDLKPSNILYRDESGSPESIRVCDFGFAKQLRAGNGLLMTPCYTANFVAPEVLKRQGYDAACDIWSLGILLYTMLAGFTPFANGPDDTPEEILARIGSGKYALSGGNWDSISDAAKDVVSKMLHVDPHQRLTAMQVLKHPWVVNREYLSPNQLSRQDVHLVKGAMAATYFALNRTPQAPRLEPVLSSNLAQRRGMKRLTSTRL
UniProt Q15418: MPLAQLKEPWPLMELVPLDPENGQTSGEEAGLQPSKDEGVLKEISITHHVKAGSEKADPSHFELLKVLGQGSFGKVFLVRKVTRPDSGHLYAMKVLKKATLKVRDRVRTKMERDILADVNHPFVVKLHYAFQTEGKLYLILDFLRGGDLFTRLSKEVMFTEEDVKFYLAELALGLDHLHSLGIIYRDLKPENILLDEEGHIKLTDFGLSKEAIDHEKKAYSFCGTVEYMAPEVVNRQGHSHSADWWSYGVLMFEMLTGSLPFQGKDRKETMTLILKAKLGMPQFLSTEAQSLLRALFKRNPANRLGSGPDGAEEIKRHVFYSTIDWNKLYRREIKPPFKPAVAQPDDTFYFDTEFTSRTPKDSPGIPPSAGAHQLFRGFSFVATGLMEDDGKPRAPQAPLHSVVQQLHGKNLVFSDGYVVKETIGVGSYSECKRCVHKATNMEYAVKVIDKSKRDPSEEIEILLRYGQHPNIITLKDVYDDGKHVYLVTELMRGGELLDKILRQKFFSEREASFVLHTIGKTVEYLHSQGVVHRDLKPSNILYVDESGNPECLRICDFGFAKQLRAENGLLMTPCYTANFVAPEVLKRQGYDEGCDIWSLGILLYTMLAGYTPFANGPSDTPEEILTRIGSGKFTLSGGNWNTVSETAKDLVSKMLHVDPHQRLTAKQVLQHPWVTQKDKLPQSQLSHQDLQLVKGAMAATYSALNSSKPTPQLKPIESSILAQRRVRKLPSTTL
UniProt P51812: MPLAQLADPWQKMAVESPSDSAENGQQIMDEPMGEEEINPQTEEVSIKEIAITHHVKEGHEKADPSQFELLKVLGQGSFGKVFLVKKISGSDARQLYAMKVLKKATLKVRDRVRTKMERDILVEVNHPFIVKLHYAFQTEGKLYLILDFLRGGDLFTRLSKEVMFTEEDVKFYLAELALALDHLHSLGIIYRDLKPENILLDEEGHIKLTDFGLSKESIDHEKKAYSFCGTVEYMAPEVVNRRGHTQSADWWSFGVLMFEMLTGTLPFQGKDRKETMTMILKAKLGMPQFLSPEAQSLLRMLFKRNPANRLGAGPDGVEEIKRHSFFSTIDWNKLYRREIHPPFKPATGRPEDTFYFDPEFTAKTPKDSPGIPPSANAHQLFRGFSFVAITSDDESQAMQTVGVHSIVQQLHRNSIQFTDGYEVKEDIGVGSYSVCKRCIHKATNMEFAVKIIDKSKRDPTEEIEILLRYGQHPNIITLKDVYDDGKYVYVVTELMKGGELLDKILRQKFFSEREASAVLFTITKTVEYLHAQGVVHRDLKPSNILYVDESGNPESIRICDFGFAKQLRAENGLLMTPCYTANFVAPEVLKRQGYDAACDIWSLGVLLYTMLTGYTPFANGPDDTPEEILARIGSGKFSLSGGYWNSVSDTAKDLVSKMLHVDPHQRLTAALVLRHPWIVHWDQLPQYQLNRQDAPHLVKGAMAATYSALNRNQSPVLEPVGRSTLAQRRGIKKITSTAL

pACT-VP16-ELK3-FL = molecular target: T2, pACT-VP16-ELK3-FL (UniProt P41970); experiment: co-IP; RSK2 deletion mutants co-expressed with full-length VP16-ELK3 in HEK293T; ELK3 immunoprecipitated with VP-16 tag antibody, RSK2 detected with His-tag antibody
T2 sequence: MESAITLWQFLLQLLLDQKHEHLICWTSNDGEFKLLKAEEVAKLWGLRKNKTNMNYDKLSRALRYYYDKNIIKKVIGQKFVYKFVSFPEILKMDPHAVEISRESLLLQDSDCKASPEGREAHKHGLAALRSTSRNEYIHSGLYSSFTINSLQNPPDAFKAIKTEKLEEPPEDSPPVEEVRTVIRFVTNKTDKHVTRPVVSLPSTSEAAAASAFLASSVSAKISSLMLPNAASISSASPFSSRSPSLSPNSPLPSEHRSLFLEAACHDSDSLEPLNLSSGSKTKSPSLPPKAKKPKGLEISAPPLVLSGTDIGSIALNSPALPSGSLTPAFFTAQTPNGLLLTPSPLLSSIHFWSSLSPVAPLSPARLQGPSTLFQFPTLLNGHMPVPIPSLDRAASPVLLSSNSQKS

pBIND-RSK4 = pBIND-RSK4 (UniProt Q9UK32); experiment: two-hybrid; mammalian two-hybrid (Promega Checkmate) in HEK293T cells; pBIND-RSK as bait, pACT-transcription factor, pG5-luciferase at the same molar ratio; firefly luciferase normalized to Renilla
pBIND-RSK3 = pBIND-RSK3 (UniProt Q15349); experiment: as above
pBIND-RSK1 = pBIND-RSK1 (UniProt Q15418); experiment: as above
[1] = molecular target: pBIND-RSK2 (ribosomal S6 kinase 2 fused to the Gal4 DNA-binding domain) (UniProt P51812); experiment: as above
[2] = molecular target: pBIND-RSK2 (ribosomal S6 kinase 2 fused to the Gal4 DNA-binding domain) (UniProt P51812); experiment: co-IP; pBIND-RSK2 and each pcDNA4-HisMax-ELK co-expressed in HEK293T; NP-40 lysis buffer, protein G beads, western blotting; the precipitating antibody is not given
[3] = molecular target: RSK2-FL (His- and Xpress-tagged full-length RSK2) (UniProt P51812); experiment: co-IP; VP16-ELK3 deletion mutants co-expressed with full-length RSK2 in HEK293T; RSK2 immunoprecipitated with Xpress tag antibody, ELK3 detected with VP-16 tag antibody

- binding (His-ELK3-D4): binds
Molecule: Myc-RSK2 (from UniProt P51812 1-740) (enzyme)

- binding (pACT-VP16-ELK3-FL): binds
Molecule: RSK2-FL (His- and Xpress-tagged full-length RSK2) (from UniProt P51812 1-740) (enzyme)

- binding (pBIND-RSK4): binds weakly
- binding (pBIND-RSK3): binds weakly
- binding (pBIND-RSK1): binds
- binding [1]: binds
B1: pACT-ELK1 (protein, UniProt P19419 1-428)
chain: MDPSVTLWQFLLQLLREQGNGHIISWTSRDGGEFKLVDAEEVARLWGLRKNKTNMNYDKLSRALRYYYDKNIIRKVSGQKFVYKFVSYPEVAGCSTEDCPPQPEVSVTSTMPNVAPAAIHAAPGDTVSGKPGTPKGAGMAGPGGLARSSRNEYMRSGLYSTFTIQSLQPQPPPHPRPAVVLPSAAPAGAAAPPSGSRSTSPSPLEACLEAEEAGLPLQVILTPPEAPNLKSEELNVEPGLGRALPPEVKVEGPKEELEVAGERGFVPETTKAEPEVPPQEGVPARLPAVVMDTAGQAGGHAASSPEISQPQKGRKPRDLELPLSPSLLGGPGPERTPGSGSGSGLQAPGPALTPSLLPTHTLTPVLLTPSSLPPSIHFWSTLSPIAPRSPAKLSFQFPSSGSAQVHIPSISVDGLSTPVVLSPGPQKP

- binding [2]: binds weakly
B2: pcDNA4-HisMax-ELK1 (protein, UniProt P19419 1-428)
chain: B1 chain

- binding [3]: binds
B3: pACT-VP16-ELK3-D4 (domain or fragment, UniProt P41970 288-406)
chain: T1 sequence

- binding [3]: no binding
B4: pACT-VP16-ELK3-D3 (domain or fragment, UniProt P41970 211-287)
chain: SAFLASSVSAKISSLMLPNAASISSASPFSSRSPSLSPNSPLPSEHRSLFLEAACHDSDSLEPLNLSSGSKTKSPSL

- binding [3]: no binding
B5: pACT-VP16-ELK3-D1 (domain or fragment, UniProt P41970 1-92)
chain: MESAITLWQFLLQLLLDQKHEHLICWTSNDGEFKLLKAEEVAKLWGLRKNKTNMNYDKLSRALRYYYDKNIIKKVIGQKFVYKFVSFPEILK

- binding (pBIND-RSK4): binds weakly
- binding (pBIND-RSK3): binds weakly
- binding (pBIND-RSK1): binds
- binding [1]: binds
B6: pACT-ELK4 (protein, UniProt P28324 1-431)
chain: MDSAITLWQFLLQLLQKPQNKHMICWTSNDGQFKLLQAEEVARLWGIRKNKPNMNYDKLSRALRYYYVKNIIKKVNGQKFVYKFVSYPEILNMDPMTVGRIEGDCESLNFSEVSSSSKDVENGGKDKPPQPGAKTSSRNDYIHSGLYSSFTLNSLNSSNVKLFKLIKTENPAEKLAEKKSPQEPTPSVIKFVTTPSKKPPVEPVAATISIGPSISPSSEETIQALETLVSPKLPSLEAPTSASNVMTAFATTPPISSIPPLQEPPRTPSPPLSSHPDIDTDIDSVASQPMELPENLSLEPKDQDSVLLEKDKVNNSSRSKKPKGLELAPTLVITSSDPSPLGILSPSLPTASLTPAFFSQTPIILTPSPLLSSIHFWSTLSPVAPLSPARLQGANTLFQFPSVLNSHGPFTLSGLDGPSTPGPFSPDLQKT

- binding [2]: binds
B7: pcDNA4-HisMax-ELK4 (protein, UniProt P28324 1-431)
chain: B6 chain

- binding (pBIND-RSK4): binds weakly
- binding (pBIND-RSK3): binds weakly
- binding (pBIND-RSK1): binds
- binding [1]: binds
B8: pACT-VP16-ELK3-FL (protein, UniProt P41970 1-407)
chain: T2 sequence

- binding [2]: binds
B9: pcDNA4-HisMax-ELK3 (protein, UniProt P41970 1-407)
chain: T2 sequence

- binding [3]: no binding
B10: pACT-VP16-ELK3-D2 (domain or fragment, UniProt P41970 93-209)
chain: MDPHAVEISRESLLLQDSDCKASPEGREAHKHGLAALRSTSRNEYIHSGLYSSFTINSLQNPPDAFKAIKTEKLEEPPEDSPPVEEVRTVIRFVTNKTDKHVTRPVVSLPSTSEAAA

From PMC6515335
